# In all, about 350,000 compounds went through this assay and about 9,900 (2.8%) were called active. The inconclusive results got no clear call from the source; some entries with a clear call stand among them for comparison. The call rests on the fitted dose curve; in most records, active means well fitted activation curve with a large enough effect; inconclusive means small, poorly fitted or top-dose-only effect; inactive means no such curve, though single readings can be large or run the other way. Potencies of inconclusive entries are left out as doubtful fits.
# Assay: A quantitative high throughput screen for small molecules that induce DNA re-replication in MCF 10a normal breast cells. Further: nearly all actives have a fitted effect of over 50% in size.
# Conditions: MCF 10A DNA re-replication, Hoechst nuclear intensity, 48 h; series mostly up to 46.1 µM
# Potency means the concentration at half of the fitted maximal effect; tags describe the fitted curve by direction and shape.
row,SMILES,Potency
1,COC(=O)c1ccccc1NC(=S)NC(=O)C1CCCCC1,inactive
2,CC(C)(C)S(=O)N1Cc2cn(Cc3ccccc3)c(=O)cc2[C@H]1CCO (some centres undefined),inactive
3,O=C(Nc1ncc(Cc2ccccc2)s1)C1CCCO1 (centres undefined),inactive
4,COc1ccccc1C1OC(c2cccc([N+](=O)[O-])c2)=NN1C(C)=O (centres undefined),inactive
5,Clc1ccccc1/C=C/c1nc(-c2ccccn2)no1,inactive
6,COc1ccc(N2CCN(C(=O)c3oc4c(c3C)C(=O)CCC4)CC2)cc1,"inconclusive [activator, single point]"
7,Oc1ccc(Cl)cc1CNC1CCCCC1,"inconclusive [activator, single point]"
8,CCOc1ccc(N=Cc2c(O)n(-c3cccc(C)n3)c(=O)c3ccccc23)cc1,"inconclusive [activator, partial curve, poor fit]"
9,O=C(COC(=O)/C=C/c1ccco1)NCc1ccccc1,inactive
10,O=C(COc1ccccc1)NNC(=S)NC(=O)c1ccccc1,inactive
11,CO[C@H]1C[C@@H]2CC[C@@H](C)[C@@](O)(O2)C(=O)C(=O)N2CCCC[C@H]2C(=O)O[C@H]([C@H](C)C[C@@H]2CC[C@@H](OCCO)[C@H](OC)C2)CC(=O)[C@H](C)/C=C(\C)[C@@H](O)[C@@H](OC)C(=O)[C@H](C)C[C@H](C)/C=C/C=C/C=C/1C,"inconclusive [activator, single point]"
12,C[C@]12c3[nH]c4ccc(Cl)cc4c3CCN1C(=O)[C@@H](CC(=O)NCCN1CCOCC1)C[C@@H]2C(=O)N1CCCCC1,inactive
13,Cc1cc2nc(CN(C)Cc3c(C(=O)N(C)C)nc4ccc(Cl)cn34)[nH]c2cc1C,"inconclusive [activator, partial curve, poor fit]"
14,CC1=CC(C)(C)NC(=S)N1c1ccc2ccccc2c1,inactive
15,COc1ccc(NC(=O)/C(=C\c2ccc(OC)c(OC)c2)NC(=O)c2ccco2)cc1,inactive
16,Cc1ccc(OCc2cc(C(=O)N(C)Cc3nccn3C)no2)cc1C,inactive
17,CN1CCN(Cc2cc(COCc3ccccc3)c3cccnc3c2O)CC1,"inconclusive [activator, single point]"
18,CCc1ccc(NC(=O)C(C)OC(=O)/C=C/c2cccc([N+](=O)[O-])c2)cc1 (centres undefined),"inconclusive [activator, single point]"
19,O=C(COC(=O)c1n[nH]c2ccccc12)Nc1cccc(S(=O)(=O)N2CCOCC2)c1,inactive
20,O=C(c1ccc(Cl)c(S(=O)(=O)NCc2ccco2)c1)N1CCN(c2ccccc2F)CC1,"inconclusive [activator, partial curve]"
21,O=C(Nc1ccc(N2CCOCC2)c(Cl)c1)c1ccc(Cl)cc1,inactive
22,CCCCCCCCN1[C@@H](CC(C)=O)c2cc(C(F)(F)F)ccc2S1(=O)=O,inactive
23,CCc1cc(=O)oc2cc(C)cc(OC(C)C(=O)NCc3cccnc3)c12 (centres undefined),inactive

row,SMILES,Potency
1,Cc1nc2cnccc2n1C,inactive
2,CCc1nccn1CCC(=O)N1CCCC(Nc2ccc(C(C)C)cc2)C1 (centres undefined),"inconclusive [activator, partial curve]"
3,CCCn1c(=N)c(C(=O)NCC2CCCO2)cc2c(=O)n3cccc(C)c3nc21 (centres undefined),active: 11.6 µM
4,Cc1ccccc1Nc1nc(N)nc(COC(=O)c2cccc(S(=O)(=O)NCc3ccccc3)c2)n1,"inconclusive [activator, single point]"
5,CC(C)c1cc(C(=O)OCC(=O)N2CCN(C(=O)c3ccco3)CC2)c(O)c(C(C)C)c1,"inconclusive [activator, single point]"
6,CCOC(=O)c1c(C)[nH]c(C(=O)CN2CC(C)OC(C)C2)c1C (centres undefined),"inconclusive [activator, single point]"
7,Cc1nc(C/C(=N\Nc2ccccc2)c2ccc(O)cc2O)cs1,"inconclusive [activator, single point]"
8,Cc1cc(NCc2ccccc2)nc(-c2ccccc2O)n1,"inconclusive [activator, partial curve, poor fit]"
9,Cc1cc(C)c(C(=O)c2ccc(C(=O)N(C(C)C)C(C)C)cc2)c(C)c1,inactive
10,Cc1ccc(C)c(NS(=O)(=O)c2ccc3[nH]c(=O)[nH]c3c2)c1,inactive
11,COc1cccc(CNc2ccc3[nH]c(=O)[nH]c3c2)c1OCc1ccccc1,inactive
12,CC1CCCN(CCCNS(=O)(=O)c2ccc3c(c2)CCN3C(=O)C2CC2)C1 (centres undefined),"inconclusive [activator, full curve, poor fit]"
13,Cc1ccc(S(=O)(=O)N2CCCCCC2)cc1[N+](=O)[O-],"inconclusive [activator, single point]"
14,NC(=S)Nc1cccc2cc3ccccc3cc12,"inconclusive [activator, partial curve, poor fit]"
15,C=C(C)CN(CC)C(=O)CSc1nc(O)cc(=O)n1C1CCCC1,"inconclusive [activator, partial curve, poor fit]"
16,Cc1nnnn1/C(=C\c1ccccc1)C(=O)OCC(=O)Nc1cccc(S(=O)(=O)N(C)C)c1,"inconclusive [activator, single point]"
17,CCN1CCN(c2ccc(S(=O)(=O)N3CCCCC3)cc2NC(=O)c2ccc([N+](=O)[O-])s2)CC1,"inconclusive [activator, single point]"
18,CCOc1ccccc1-c1cc(C(=O)N/N=C(\C)c2cccnc2)c2ccccc2n1,"inconclusive [activator, single point]"
19,O=C(c1ccc([N+](=O)[O-])cc1)N1CCC(n2nnc3cc(F)ccc32)CC1,"inconclusive [activator, single point]"
20,COc1cc2c(cc1OC)C(=O)N1[C@H]3c4cc(C)ccc4OC[C@@H]3[C@H](c3ccccc3)[C@]1(C)C(=O)N2,active: 14.6 µM
21,COc1ccccc1/C=C1\SC(=S)N(CCC(=O)Nc2cccc(O)c2)C1=O,active: 10.3 µM
22,CCN(CC)CCn1c(=S)[nH]c2ccc(Cl)cc2c1=O,inactive
23,CCN=c1scc(-c2ccco2)n1/N=C/c1ccc(OC)c(O)c1,"inconclusive [activator, partial curve]"

row,SMILES,Potency
1,CCNC(=O)/C(C#N)=C/c1c(N2CCN(c3ccccc3)CC2)nc2ccccn2c1=O,"inconclusive [activator, single point]"
2,CCCC1C2C(=O)N(c3ccccc3OCC)C(=O)C2ON1c1ccccc1 (centres undefined),"inconclusive [activator, full curve, poor fit]"
3,Cc1ccc(OCCCCn2ccnc2)c(Cl)c1,inactive
4,COCCn1c(=NC(=O)c2ccc3c(c2)OCCO3)sc2cc(S(N)(=O)=O)ccc21,"inconclusive [activator, partial curve, poor fit]"
5,Cc1ccc(S(=O)(=O)NCCSc2nnc(N)s2)cc1,"inconclusive [activator, single point]"
6,OC(COc1ccccc1)CN1CCCC1 (centres undefined),inactive
7,Cc1ccccc1NC(=O)COC(=O)C1C2CC3OC(=O)C1C3C2 (centres undefined),inactive
8,Cc1csc(=O)n1CC(=O)OC(C)C(=O)Nc1cccc(Cl)c1 (centres undefined),inactive
9,CN1C(=O)CC(c2ccccc2)C1=O (centres undefined),"inconclusive [activator, full curve, poor fit]"
10,CC(=O)n1cc([C@@H]2C=C(C(=O)O)O[C@H](OCc3ccc(CO)cc3)C2)c2ccccc21,"inconclusive [activator, single point]"
11,Cc1ccc(S(=O)(=O)N(C)CC(=O)OCC(=O)NC(=O)Nc2ccc3c(c2)OCCO3)cc1,inactive
12,NC(=O)C1CCN(C(=O)C(Cc2ccccc2)NC(=O)c2ccccc2)CC1 (centres undefined),inactive
13,CCN(C(=O)CN1C(=O)S/C(=C\c2ccc(F)cc2)C1=O)C1CCS(=O)(=O)C1 (centres undefined),inactive
14,COc1ccccc1/C=C/C=N/NC(=O)c1cc(-c2ccco2)[nH]n1,"inconclusive [activator, single point]"
15,COc1cc(NC(=O)CSc2ccc(-c3ccccn3)nn2)cc(OC)c1,"inconclusive [activator, single point]"
16,CCOC(=O)/C(=C/c1ccc(OC(=O)c2ccncc2)cc1)C(C)=O,"inconclusive [activator, single point]"
17,CCOC(=O)N1CCN(C(=O)c2ccc(CNS(=O)(=O)c3ccc(C)cc3)cc2)CC1,"inconclusive [activator, single point]"
18,CC(C)N=C1CC(C)(C)CC(=O)/C1=C(/O)CCCN1C(=O)c2ccccc2C1=O,"inconclusive [activator, partial curve, poor fit]"
19,COc1cccc(NS(=O)(=O)NC(=O)c2cn(C)c3ccccc23)c1,"inconclusive [activator, partial curve, poor fit]"
20,CCN(CC(=O)NCc1ccco1)S(=O)(=O)c1ccc(OC)cc1,inactive
21,CC/C(=N\Nc1ccc([N+](=O)[O-])cc1[N+](=O)[O-])c1ccc(O)cc1,"inconclusive [activator, partial curve, poor fit]"
22,COc1ccc2sc3c(=O)[nH]c4ccccc4c3c2c1,"inconclusive [activator, full curve, poor fit]"
23,FC(F)(F)c1ccc(NC(=S)NCc2ccccc2)cc1,"inconclusive [activator, single point]"

# Source: PubChem BioAssay AID624296 (National Center for Advancing Translational Sciences (NCATS), 2012)
